We go through 82 compounds from ChEMBL document CHEMBL4888484, “Replenishing the malaria drug discovery pipeline: Screening and hit evaluation of the MMV Hit Generation Library 1 (HGL1) against asexual blood stage Plasmodium falciparum ,using a nano luciferase reporter read-out” (2022).

Structures are written as SMILES. About 540 (0.36%) of roughly 150,000 compounds showed an effect of 50% or more. The list shows a part of the results.

For the assay, the system named is Plasmodium falciparum. In words: Primary screen in NF54 nanoGlo assay, in single point, at 2uM, 72h; a lower Z score goes with more inhibition. The format is functional, Erythrocyte. As to conditions: timepoint 72 hour.
With `CC1(C(=O)NC[C@@]2(C)CCN(C(=O)C3(C)COC3)C2)COC1`, the “% Inhibition” value is given as -7% and the Z score amounted to 1.35.
Consider `O=C(NC1CC1)C1CCCN1C1CCCN(CC(F)(F)F)C1=O` (centres undefined), for which the “% Inhibition” value is -24% and the Z score turned out to be 2.82.
As to `CC[C@H](C)CS(=O)(=O)Cc1nsc(N(C)C)n1`, the “% Inhibition” value is given as -5% and the Z score came to 0.64.
Take `CO[C@@H](C(=O)N1CCC(n2cc(Cl)cn2)CC1)c1ccccc1`: the “% Inhibition” value is recorded as -9% and the Z score is on record as 0.98.
With `CCN(Cc1cc[nH]n1)C1CCCCC1`, the “% Inhibition” value is recorded as -2% and the Z score worked out at 0.43.
As to `Cc1cccc(C)c1OC1CCN(C(=O)Cc2c(C)noc2C)CC1`, the “% Inhibition” value is -8% and the Z score is on record as 1.04.
As to `C=CCn1c(C)c(CCC(=O)N[C@@H](C)CC)c(=O)n2nc(-c3ccccc3)nc12`, the “% Inhibition” value was -23% and the Z score came out at 2.27.
For the compound `Cc1ccc(S(=O)(=O)N2CCC[C@@H]3C[C@@]32C(=O)O)c(Cl)c1`, the “% Inhibition” value is listed as -3% and the Z score was found to be 0.37.
`CCOCCO/C(=N/C(=O)c1ccc(OC)cc1)NC[C@H]1CCCO1`: the “% Inhibition” value is recorded as -24% and the Z score was 2.15.
In the case of `CCOC(=O)CCNC(=O)N1CCC(N2C[C@@H](Oc3ccccc3)C[C@H]2C(=O)NC)CC1`, the “% Inhibition” value is given as -11% and the Z score is 1.37.
`O=C(Cc1csc(Nc2ccc(F)cc2)n1)NC[C@H]1CCCO1`: the “% Inhibition” value came to 13% and the Z score is -1.72.
Turning to `Cc1cc(Cl)cc2c1NC(=O)C21NC(CCC(=O)O)[C@H]2C(=O)N(Cc3ccccc3Cl)C(=O)[C@H]21` (some centres undefined), the “% Inhibition” value was 38% and the Z score was -4.92.
On to `Cc1c[nH]c(CN(C)c2ncnc3oc(C)nc23)n1`, for which the “% Inhibition” value stood at 2% and the Z score is listed as -0.45.
On to `Cn1cccc1C(=O)N1Cc2c(C(=O)N3CCCC3)nn(C)c2C1`, for which the “% Inhibition” value is -18% and the Z score was determined as 3.24.
The matching figures for `CCS(=O)(=O)c1cc(Cl)cc(CNCc2ccc(C)nc2)c1`: -5% and 0.62.
For the compound `O=C(CCc1ccnc2ccccc12)NC1C2CCOC2C12CCC2` (centres undefined), the “% Inhibition” value is reported as -9% and the Z score came out at 1.66.
`CC(C)c1ccoc1C(=O)N(CC(F)(F)F)[C@H]1CCCOC1`: the “% Inhibition” value is listed as -6% and the Z score amounted to 0.75.
`Cc1ccccc1CN[C@H]1CCCOCC1`: the “% Inhibition” value was -4% and the Z score amounted to 0.53.
On the same counts, the results for `CC(C)(C(=O)N1CCC2(CCc3ccccc3C2=O)CC1)n1cc(N)cn1` are -5% and 0.75.
As to `O=C(c1ccc(Cl)cc1)c1cc(NC(=O)c2cc(Cl)cc(Br)c2O)ccc1Cl`, the “% Inhibition” value is on record as -9% and the Z score was found to be 1.24.
Take `CCCc1nc(C)cc(N2CC[C@H]3[C@H](CCC(=O)N3CCCO)C2)n1`: the “% Inhibition” value is recorded as -3% and the Z score was determined as 0.62.
As for `COc1ccccc1[C@@H](NCc1ncnn1C)C1CCCC1`, the “% Inhibition” value is on record as -3% and the Z score was 0.59.
For `Cc1cccc(Cl)c1S(=O)(=O)NC(=O)c1cn2c(n1)CCC2`, the “% Inhibition” value is reported as -10% and the Z score was 1.23.
With `O=C(Nc1cccc(S(=O)(=O)N2CCOCC2)c1)c1n[nH]c(=O)c2ccccc12`, the “% Inhibition” value is listed as -9% and the Z score came out at 1.
With `O=C1Nc2c(F)cccc2[C@@H]1CC(=O)N(Cc1ccncc1)C1CC1`, the “% Inhibition” value is -6% and the Z score turned out to be 0.98.
As to `CC1CCN(C(=O)CCN2CCN(c3ncc[nH]c3=O)CC2)CC1`, the “% Inhibition” value is on record as -6% and the Z score is given as 1.15.
On to `O=C1CN(S(=O)(=O)c2cccc3nsnc23)c2ncccc2N1`, for which the “% Inhibition” value is reported as 6% and the Z score is -1.11.
`C=CCN1C[C@H]2CN(C(=O)COc3cccc(C)c3C)C[C@@]2(C(=O)O)C1`: the “% Inhibition” value was -7% and the Z score amounted to 1.47.
With `Cc1ccc(-c2ccc(C(=O)N3CCC[C@H](C(N)=O)C3)cc2)c(C)n1`, the “% Inhibition” value is -1% and the Z score was determined as 0.1.
On the same counts, the results for `CC(C)NC(=O)N[C@H]1CCN2C(=O)c3cc(-c4ccc(F)cc4F)ccc3NC(=O)[C@H]12` are 34% and -3.82.
Take `O=C(NCC1(c2ccccc2Cl)CCOCC1)[C@H]1C[C@H](F)CN1`: the “% Inhibition” value is listed as -6% and the Z score turned out to be 0.8.
In the case of `NC1CCCC1C(=O)N1CCC(c2nc3cc(Cl)ccc3o2)CC1` (centres undefined), the “% Inhibition” value was -10% and the Z score is on record as 1.52.
The matching figures for `CCn1cnnc1CN(C)Cc1cc2cc(C)ccc2n1C`: -17% and 1.74.
The matching figures for `C[C@H](NC(=O)c1ccoc1)c1nc(C2CC2)no1`: -10% and 1.05.
Take `C=CCN1C[C@@H](C(=O)N(CC)Cc2cc(Cl)ccc2OC)CCC1=O`: the “% Inhibition” value came out at 25% and the Z score is given as -3.14.
Turning to `COC1CCCC1OC(=O)c1cccc(-n2cnnn2)c1` (centres undefined), the “% Inhibition” value was -5% and the Z score is 0.6.
`Cc1ccc(N(CN2C(=O)NC(C)(C)C2=O)CN2C(=O)NC(C)(C)C2=O)cc1`: the “% Inhibition” value is -13% and the Z score is 1.65.
Take `Cc1cc(CNC(=O)[C@@H]2Cc3ccccc3C(=O)N2)n(C)n1`: the “% Inhibition” value was 1% and the Z score is recorded as -0.15.
As for `C[C@@H](CN1CCOC2(CCOCC2)C1)c1cccc(Cl)c1`, the “% Inhibition” value is recorded as -8% and the Z score is recorded as 0.8.
On to `O=C(O)c1csc(-n2nc3c(c2C(F)(F)F)CCCCC3)n1`, for which the “% Inhibition” value is recorded as -36% and the Z score is on record as 4.19.
As to `OCCC1CN(Cc2ccc(Cl)cc2-n2cncn2)C1`, the “% Inhibition” value was -11% and the Z score is 1.57.
The matching figures for `CCn1ccnc1[C@H]1OCC[C@@H]1NS(=O)(=O)c1cccc2nsnc12`: -14% and 2.41.
With `CN1CC[C@H](CNC(=O)c2cccc(N3Cc4ccccc4C3)c2)C1`, the “% Inhibition” value is -15% and the Z score is 1.62.
For the compound `NC(=O)C[C@H]1CCCN(S(=O)(=O)c2cc(C(=O)O)cc3c2CCCC3)CC1`, the “% Inhibition” value was -2% and the Z score is recorded as 0.24.
As for `Cc1cccc([C@@H]2CCCCN2CC(N)=O)c1C`, the “% Inhibition” value worked out at 0% and the Z score is recorded as 0.05.
In the case of `Cc1cc(C)n(-c2ccc(NC(=O)c3cc(C4CC4)nc4c3cnn4C)cc2)n1`, the “% Inhibition” value is listed as 35% and the Z score is -3.97.
Consider `C[C@H](NCCc1ccccc1)C(=O)NC(=O)NC1CCCCC1`, for which the “% Inhibition” value was determined as 3% and the Z score was -0.32.
As for `O=C1C[C@H](COc2cnccn2)CN1CC1CCN(C(=O)c2n[nH]c3ccccc23)CC1`, the “% Inhibition” value is -9% and the Z score was determined as 1.77.
In the case of `CC1CC(c2cccnc2)N(C(=O)CCc2cccc(N(C)C)c2)C1` (centres undefined), the “% Inhibition” value is recorded as -4% and the Z score was determined as 0.81.
On the same counts, the results for `CC#CCN1CCC[C@H](S(=O)(=O)NC2CCCC2)C1` are -19% and 2.69.
Regarding `O=C(CCC1CCCC1)Nc1ccc(Cl)cn1`, the “% Inhibition” value is recorded as -15% and the Z score is reported as 2.05.
Consider `CCCc1nc(N[C@@H](C)Cn2cncn2)c2cnn(C)c2n1`, for which the “% Inhibition” value is -8% and the Z score came to 1.65.
As to `CN(C)CC1(O)CCC2(CCN(C(=O)c3n[nH]c4c3COc3ccccc3-4)CC2)CC1`, the “% Inhibition” value amounted to 5% and the Z score is given as -0.71.
Take `CCCC(=O)N1CCNC(=O)[C@@H]1c1c(C)nc2ccccn12`: the “% Inhibition” value is -15% and the Z score stood at 1.61.
Turning to `CC(C)(C)OC(=O)N1CCC[C@H]1C(=O)NCCNc1ncccn1`, the “% Inhibition” value is recorded as -4% and the Z score amounted to 0.46.
On the same counts, the results for `Cn1nc2c(c1CNC(=O)c1ccc3c(c1)OCO3)CCC2` are 10% and -1.22.
In the case of `Cn1cc(C(=O)N2CC[C@H](Oc3ccc(-c4noc(C5CC5)n4)cc3)C2)cn1`, the “% Inhibition” value was 33% and the Z score is -3.74.
On to `CC(C)(CCNC(=O)[C@H]1CCO[C@@H]1c1cccnc1)C(F)(F)F`, for which the “% Inhibition” value is -8% and the Z score is 1.03.
In the case of `COC(=O)c1cc(C)nc2c1c(=O)n(CC(=O)Nc1ccc(OC)cc1)c(=O)n2-c1ccccc1`, the “% Inhibition” value is on record as -7% and the Z score amounted to 0.89.
Turning to `Cc1noc(C)c1CS(=O)(=O)CCc1cc(Cl)c2c(c1)OCCCO2`, the “% Inhibition” value is 2% and the Z score is -0.18.
For the compound `CC(=O)c1ccc(NCN2C(=O)C(=O)c3ccccc32)cc1`, the “% Inhibition” value is given as -10% and the Z score is 1.82.
Take `Cc1noc(C)c1S(=O)(=O)N(C)Cc1noc2c1CCCC2`: the “% Inhibition” value is on record as -2% and the Z score turned out to be 0.23.
Turning to `CCOCCCNc1nc(C)nc2onc(C)c12`, the “% Inhibition” value was -10% and the Z score came to 1.12.
With `COc1ccc(Oc2c(CN(C[C@@H](O)Cc3ccccc3)C(C)C)c(-c3ccccc3)nn2C)cc1`, the “% Inhibition” value is given as -6% and the Z score is recorded as 0.81.
With `C[C@@](NC(=O)Nc1cnn(C(F)F)c1)(c1ccccc1)C(F)(F)F`, the “% Inhibition” value is -17% and the Z score was 2.18.
`C[C@H]1CN(Cc2cnc3c(-c4ccccc4)cnn3c2)CCN1`: the “% Inhibition” value is -6% and the Z score came out at 0.99.
Take `COc1ccc([N+]2=C3CCCC(c4ccccc4)N3CC2(O)c2ccccc2)cc1` (centres undefined): the “% Inhibition” value is given as -4% and the Z score is listed as 0.52.
Consider `C[C@@H](c1ncnn1CCc1ccccc1)N1CCN(C)CC1`, for which the “% Inhibition” value is recorded as -9% and the Z score is listed as 0.98.
Consider `CCCC(=O)N1C[C@H](c2nc(-c3ccc(F)cc3)no2)C2(CCOCC2)C1`, for which the “% Inhibition” value is reported as 1% and the Z score is -0.2.
Consider `COC(=O)N(C)CCCC(=O)Nc1ccccc1-c1ncc(C)o1`, for which the “% Inhibition” value was 2% and the Z score is listed as -0.27.
In the case of `COCCN1C(=O)C[C@H](CNc2nc(N)nc3c2CCCC3)[C@H]1c1cnn(C)c1`, the “% Inhibition” value was 2% and the Z score is recorded as -0.4.
As for `O=C(CCC(F)(F)F)N1CC[C@@]2(CCCN(CCC3CCCCC3)C2)C1`, the “% Inhibition” value is given as -8% and the Z score is recorded as 1.11.
For `CCCc1cc(N2CC[C@H](NS(=O)(=O)N(C)C)[C@@H](O)C2)nc(C)n1`, the “% Inhibition” value is on record as -9% and the Z score is given as 1.44.
With `COCCc1nsc(N2CCNC(=O)CCN(C(=O)c3ccoc3Cl)CC2)n1`, the “% Inhibition” value is recorded as -4% and the Z score was 0.55.
Turning to `O=C(Nc1ccc2c(c1)OCO2)Nc1ccn(Cc2c(F)cccc2Cl)n1`, the “% Inhibition” value is given as -4% and the Z score came to 0.43.
The matching figures for `Cc1c(C)c2c(c(C)c1NC(=O)c1cc3ccccc3o1)NC(=O)CO2`: 33% and -3.72.
`O=C1NCCC1C(=O)N1CC2CCC2(Nc2nc3ccccc3o2)C1` (centres undefined): the “% Inhibition” value is given as -4% and the Z score came to 0.42.
With `COCc1n[nH]c(-c2cccc(NC(=O)CC[C@@H]3NC(=O)c4ccccc4NC3=O)c2)n1`, the “% Inhibition” value was -11% and the Z score came out at 1.35.
The matching figures for `CN(CCC(=O)N1CCCCC1)CCc1nccs1`: -3% and 0.26.
Take `Cn1nccc1C1=CCN(S(=O)(=O)CCC2CCCCC2)CC1`: the “% Inhibition” value is recorded as -4% and the Z score is 0.64.
With `COc1ccc(Cn2c(N)c(C(=O)NCc3ccccc3Cl)sc2=S)cc1`, the “% Inhibition” value is -4% and the Z score amounted to 0.51.
The matching figures for `CN(C)C(=O)NC[C@@H]1C[C@H](F)CN1C(=O)C(C)(C)Oc1ccc2c(c1)CCC2`: 3% and -0.66.

One may read the % Inhibition as the drop in the measured response relative to a control, in per cent.
